B1: Flag-tagging AnxA6 (annexin A6 from plasmid pTango-4*Flag-AnxA6) [not stated] / EGFP-tagging RHOU (Ras homolog family member U from plasmid pEGFP-RHOU) [not stated] (parent)
chain 1: MAKPAQGAKYRGSIHDFPGFDPNQDAEALYTAMKGFGSDKEAILDIITSRSNRQRQEVCQSYKSLYGKDLIADLKYELTGKFERLIVGLMRPPAYCDAKEIKDAISGIGTDEKCLIEILASRTNEQMHQLVAAYKDAYERDLEADIIGDTSGHFQKMLVVLLQGTREEDDVVSEDLVQQDVQDLYEAGELKWGTDEAQFIYILGNRSKQHLRLVFDEYLKTTGKPIEASIRGELSGDFEKLMLAVVKCIRSTPEYFAERLFKAMKGLGTRDNTLIRIMVSRSELDMLDIREIFRTKYEKSLYSMIKNDTSGEYKKTLLKLSGGDDDAAGQFFPEAAQVAYQMWELSAVARVELKGTVRPANDFNPDADAKALRKAMKGLGTDEDTIIDIITHRSNVQRQQIRQTFKSHFGRDLMTDLKSEISGDLARLILGLMMPPAHYDAKQLKKAMEGAGTDEKALIEILATRTNAEIRAINEAYKEDYHKSLEDALSSDTSGHFRRILISLATGHREEGGENLDQAREDAQVAAEILEIADTPSGDKTSLETRFMTILCTRSYPHLRRVFQEFIKMTNYDVEHTIKKEMSGDVRDAFVAIVQSVKNKPLFFADKLYKSMKGAGTDEKTLTRIMVSRSEIDLLNIRREFIEKYDKSLHQAIEGDTSGDFLKALLALCGGED
chain 2: MPPQQGDPAFPDRCEAPPVPPRRERGGRGGRGPGEPGGRGRAGGAEGRGVKCVLVGDGAVGKTSLVVSYTTNGYPTEYIPTAFDNFSAVVSVDGRPVRLQLCDTAGQDEFDKLRPLCYTNTDIFLLCFSVVSPSSFQNVSEKWVPEIRCHCPKAPIILVGTQSDLREDVKVLIELDKCKEKPVPEEAAKLCAEEIKAASYIECSALTQKNLKEVFDAAIVAGIQYSDTQQQPKKSKSRTPDKMKNLSKSWWKKYCCFV

Variants of: B1
Assay: co-immunoprecipitation (IP of Flag-tagging AnxA6, immunoblot for GFP), band quantification
Conditions: with EGFP-tagging RHOU (Ras homolog family member U from plasmid pEGFP-RHOU); HepG2 cells co-transfected with pEGFP-RHOU, pHis-SUMO1 and pFlag-AnxA6 or pFlag-AnxA6K579R; parent: 1; read off a plot

| ratio to parent | Variant |
| --- | --- |
| 0.8 | chain 1 K579R |

Source: publication PMC10986105
